Results published in publication PMC2841195.
Results are given in words; binding and its absence hold for the method and conditions named.

Chains of the proteins cited; added tags and fusions are not shown. Residues count along the entry.
MOR second intracellular loop (IL2, residues 166-187), GAL4 DNA-binding domain fusion (P35372, residues 166-187): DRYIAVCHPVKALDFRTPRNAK
MOR third intracellular loop (IL3, residues 260-282), GAL4 DNA-binding domain fusion (P35372, residues 260-282): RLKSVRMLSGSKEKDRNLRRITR
MOR C-terminal domain (C-tail, residues 342-400), GAL4 DNA-binding domain fusion (P35372, residues 342-400): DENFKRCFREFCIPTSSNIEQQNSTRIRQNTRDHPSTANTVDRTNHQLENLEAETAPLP
UniProt Q9ULU8: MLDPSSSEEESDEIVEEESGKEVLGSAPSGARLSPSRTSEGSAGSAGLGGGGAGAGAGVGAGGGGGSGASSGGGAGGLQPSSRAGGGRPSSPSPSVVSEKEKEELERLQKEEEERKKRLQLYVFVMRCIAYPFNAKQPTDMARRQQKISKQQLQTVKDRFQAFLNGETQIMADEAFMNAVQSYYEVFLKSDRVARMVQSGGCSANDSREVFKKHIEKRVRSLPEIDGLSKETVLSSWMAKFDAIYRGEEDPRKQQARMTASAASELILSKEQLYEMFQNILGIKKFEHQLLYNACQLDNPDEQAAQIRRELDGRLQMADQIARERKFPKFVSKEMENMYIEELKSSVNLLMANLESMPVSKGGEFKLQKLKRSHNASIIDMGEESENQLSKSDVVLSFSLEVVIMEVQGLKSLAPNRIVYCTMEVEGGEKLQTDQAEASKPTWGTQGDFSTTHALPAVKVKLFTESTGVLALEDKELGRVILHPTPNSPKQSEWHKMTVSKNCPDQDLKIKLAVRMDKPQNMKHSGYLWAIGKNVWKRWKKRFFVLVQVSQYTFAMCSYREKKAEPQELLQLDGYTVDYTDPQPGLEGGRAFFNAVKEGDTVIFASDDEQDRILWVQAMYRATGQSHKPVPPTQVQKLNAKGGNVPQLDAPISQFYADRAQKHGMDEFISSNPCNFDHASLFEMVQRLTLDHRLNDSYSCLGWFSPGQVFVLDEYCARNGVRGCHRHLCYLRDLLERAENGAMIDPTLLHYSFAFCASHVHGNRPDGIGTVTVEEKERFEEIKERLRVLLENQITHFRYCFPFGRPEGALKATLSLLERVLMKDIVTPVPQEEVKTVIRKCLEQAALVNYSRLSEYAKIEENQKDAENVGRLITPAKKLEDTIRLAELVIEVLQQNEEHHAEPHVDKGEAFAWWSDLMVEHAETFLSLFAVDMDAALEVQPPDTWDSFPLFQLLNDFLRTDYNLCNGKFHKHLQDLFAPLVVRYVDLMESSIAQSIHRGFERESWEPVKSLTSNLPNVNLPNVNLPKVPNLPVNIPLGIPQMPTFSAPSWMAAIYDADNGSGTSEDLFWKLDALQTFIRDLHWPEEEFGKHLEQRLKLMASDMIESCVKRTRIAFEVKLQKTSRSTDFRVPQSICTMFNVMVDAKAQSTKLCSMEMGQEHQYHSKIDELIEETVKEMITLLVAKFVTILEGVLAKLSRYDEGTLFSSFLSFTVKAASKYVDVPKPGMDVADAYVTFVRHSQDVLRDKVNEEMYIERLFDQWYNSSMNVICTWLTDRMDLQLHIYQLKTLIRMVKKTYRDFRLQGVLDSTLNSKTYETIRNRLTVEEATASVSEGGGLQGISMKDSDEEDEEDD

Columns and labels:
Assay in all cases: two-hybrid; directed conventional Y2H; MOR intracellular domains in GAL4 DNA-binding domain vector pAS2-1, GPR177-CT in GAL4 activation domain vector pACT2, S. cerevisiae MAV103, beta-galactosidase filter lift
[1] = target: MOR second intracellular loop (IL2, residues 166-187), GAL4 DNA-binding domain fusion (human) (UniProt P35372)
[2] = target: MOR first intracellular loop (IL1, residues 97-103), GAL4 DNA-binding domain fusion (human) (UniProt P35372)
[3] = target: MOR C-terminal domain (C-tail, residues 342-400), GAL4 DNA-binding domain fusion (human) (UniProt P35372)
[4] = target: MOR third intracellular loop (IL3, residues 260-282), GAL4 DNA-binding domain fusion (human) (UniProt P35372)

binding [1]: no binding
binding [2]: no binding
binding [3]: no binding
binding [4]: no binding
Substance: Calcium-dependent activator protein for secretion (CAPS), full-length (from UniProt Q9ULU8 1-1353)
